# Source: US11041000B2, “Peptide inhibitors of interleukin-23 receptor and their use to treat inflammatory diseases” (priority 2019, dated 2021)
# Not every detail of the peptide structures is certain; ends, links or a residue may be inferred. Numbered stars: 1 amine (or outer) side, 2 acyl side, 3 side chain; on linkers, the order of the positions; unused ones are H or OH. Bridge positions count the residues as written; N and C are the ends. Square brackets hold non-standard residues; d marks the D form. Peptide text beside a SMILES is read from it. X1 = CCc1cccc2c(C[C@H](N[*:1])C(=O)[*:2])c[nH]c12; X3 = CCc1ccc2c(C[C@H](N[*:1])C(=O)[*:2])c[nH]c2c1; Trp(7-Me) = Cc1cccc2c(C[C@H](N)C(=O)O)c[nH]c12; 2Nal = N[C@@H](Cc1ccc2ccccc2c1)C(=O)O; AEF = NCCOc1ccc(C[C@H](N)C(=O)O)cc1; Cit = NC(=O)NCCC[C@H](N)C(=O)O; Pen = CC(C)(S)[C@H](N)C(=O)O; αMeK = C[C@](N)(CCCCN)C(=O)O; βAla = NCCC(=O)O
# What was measured:
# [1] = target: IL-23R-expressing DB cells (Homo sapiens, UniProt Q5VWK5); assay: DB cells IL23R pSTAT3 cell assay (pStat3HTRF); format: cell-based; details: DB cells stimulated with IL-23 0.5 nM, 30 minutes, phospho-STAT3 in cell lysates; read-out: pStat3 HTRF
# Sequence of IL-23R-expressing DB cells (Q5VWK5 24-629 limits assumed): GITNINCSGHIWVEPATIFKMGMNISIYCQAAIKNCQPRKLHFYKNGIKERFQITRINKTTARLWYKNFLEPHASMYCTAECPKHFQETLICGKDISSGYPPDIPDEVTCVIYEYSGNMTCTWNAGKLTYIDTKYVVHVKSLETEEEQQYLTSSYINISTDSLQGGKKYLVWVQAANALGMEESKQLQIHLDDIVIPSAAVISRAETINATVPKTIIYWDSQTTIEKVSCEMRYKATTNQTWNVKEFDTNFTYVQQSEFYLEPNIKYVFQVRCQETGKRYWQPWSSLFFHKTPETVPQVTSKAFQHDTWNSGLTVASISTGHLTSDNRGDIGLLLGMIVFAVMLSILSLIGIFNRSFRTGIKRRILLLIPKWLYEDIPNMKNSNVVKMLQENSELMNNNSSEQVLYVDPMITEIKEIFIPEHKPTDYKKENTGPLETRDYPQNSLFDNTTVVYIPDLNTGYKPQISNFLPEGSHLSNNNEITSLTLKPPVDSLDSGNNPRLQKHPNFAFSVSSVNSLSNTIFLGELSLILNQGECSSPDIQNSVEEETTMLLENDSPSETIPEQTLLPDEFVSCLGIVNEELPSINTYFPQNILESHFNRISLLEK
# [2] = tested on: Natural killer (NK) cells; assay: NK cell based assay (IL-23-induced IFNγ); details: primary human NK cells, IL-23 plus IL-18 10 ng/mL, IFNγ in supernatant after 20 to 24 hours
SMILES,IC50 [1],IC50 [2]
CC(=O)NCCCC[C@H](NC(=O)[C@](C)(CC(C)C)NC(=O)[C@H](Cc1ccc2ccccc2c1)NC(=O)[C@H](Cc1ccc(OCCN)cc1)NC(=O)[C@H]1NC(=O)[C@H](CCC(N)=O)NC(=O)[C@H](Cc2c[nH]c3c(C)cccc23)NC(=O)[C@H]([C@@H](C)O)NC(=O)[C@H](CC(N)=O)NC(=O)[C@@H](NC(C)=O)C(C)(C)SSC1(C)C)C(=O)NCCC(=O)NCCC(N)=O [compound 226],25.7 nM,9.55 nM
CC(=O)NCCCC[C@H](NC(=O)[C@](C)(CC(C)C)NC(=O)[C@H](Cc1ccc2ccccc2c1)NC(=O)[C@H](Cc1ccc(OCCN)cc1)NC(=O)[C@H]1NC(=O)[C@H](CCC(N)=O)NC(=O)[C@H](Cc2c[nH]c3c(C)cccc23)NC(=O)[C@H]([C@@H](C)O)NC(=O)[C@H](CC(N)=O)NC(=O)[C@@H](NC(C)=O)C(C)(C)SSC1(C)C)C(=O)N1CCC[C@@H]1C(=O)NCCC(N)=O [compound 212],36.5 nM,157 nM
CC(=O)NCCCC[C@H](NC(=O)[C@](C)(CCCCN)NC(=O)[C@H](Cc1ccc2ccccc2c1)NC(=O)[C@H](Cc1ccc(OCCN)cc1)NC(=O)[C@H]1NC(=O)[C@H](CCCNC(N)=O)NC(=O)[C@H](Cc2c[nH]c3c(C)cccc23)NC(=O)[C@H]([C@@H](C)O)NC(=O)[C@H](CC(N)=O)NC(=O)[C@@H](NC(C)=O)C(C)(C)SSC1(C)C)C(=O)N[C@@H](CC(N)=O)C(=O)N[C@H](Cc1ccc(O)cc1)C(N)=O [compound 259] (Ac-[Pen]NT[Trp(7-Me)][Cit][Pen][AEF][2Nal][αMeK]K(Ac)N[dY]-NH2; disulfide 1-6),0.607 nM,7.6 nM
"CC(=O)NCCCC[C@@H]1NC(=O)[C@H](Cc2c[nH]c3c(C)cccc23)NC(=O)[C@H]([C@@H](C)O)NC(=O)[C@H](CC(N)=O)NC(=O)[C@@H](NC(C)=O)C(C)(C)SSC(C)(C)[C@@H](C(=O)N[C@@H](Cc2ccc(OCCN)cc2)C(=O)N[C@@H](Cc2ccc3ccccc3c2)C(=O)N[C@@](C)(CCCCN)C(=O)N[C@@H](CCCCNC(C)=O)C(=O)N[C@@H](CC(N)=O)C(=O)N[C@H](CCCCN)C(N)=O)NC1=O [SEQ ID No. 252, Ac-[Pen]-NT-[W(7-Me)]-[Lys(Ac)]-[Pen]-Phe[4-(2-aminoethoxy)]-[2-Nal]-[a-MeLys]-[Lys(Ac)]-N-[(D)Lys]-NH2]",0.338 nM,3.32 nM
CC(=O)NCCCC[C@H](NC(=O)[C@](C)(CC(C)C)NC(=O)[C@H](Cc1ccc2ccccc2c1)NC(=O)[C@H](Cc1ccc(OCCN)cc1)NC(=O)[C@H]1NC(=O)[C@H](CCC(N)=O)NC(=O)[C@H](Cc2c[nH]c3c(C)cccc23)NC(=O)[C@H]([C@@H](C)O)NC(=O)[C@H](CC(N)=O)NC(=O)[C@@H](NC(C)=O)C(C)(C)SSC1(C)C)C(=O)N(C)[C@@H](C)C(=O)NCCC(N)=O [compound 223],134 nM,8.3 nM
CC(=O)NCCCC[C@@H]1NC(=O)[C@H](Cc2c[nH]c3c(C)cccc23)NC(=O)[C@H]([C@@H](C)O)NC(=O)[C@H](CC(N)=O)NC(=O)[C@@H](NC(C)=O)C(C)(C)SSC(C)(C)[C@@H](C(=O)N[C@@H](Cc2c[nH]cn2)C(=O)N[C@@H](Cc2ccc3ccccc3c2)C(=O)N[C@@](C)(CCCCN)C(=O)N[C@@H](CCCCNC(C)=O)C(=O)N[C@@H](CC(N)=O)C(=O)N[C@H](CC(C)C)C(N)=O)NC1=O [compound 290] (Ac-[Pen]NT[Trp(7-Me)]K(Ac)[Pen]H[2Nal][αMeK]K(Ac)N[dL]-NH2; disulfide 1-6),2.45 nM,11 nM
CC[C@H](C)[C@H](NC(=O)[C@H](CCCCNC(C)=O)NC(=O)[C@](C)(CC(C)C)NC(=O)[C@H](Cc1ccc2ccccc2c1)NC(=O)[C@H](Cc1ccc(OCCN)cc1)NC(=O)[C@H]1NC(=O)[C@H](CCC(N)=O)NC(=O)[C@H](Cc2c[nH]c3c(C)cccc23)NC(=O)[C@H]([C@@H](C)O)NC(=O)[C@H](CC(N)=O)NC(=O)[C@@H](NC(C)=O)C(C)(C)SSC1(C)C)C(=O)NCCC(N)=O [compound 216],13.5 nM,> 500 nM
CC(=O)NCCCC[C@@H]1NC(=O)[C@H](Cc2c[nH]c3c(C)cccc23)NC(=O)[C@H]([C@@H](C)O)NC(=O)[C@H](CC(N)=O)NC(=O)[C@@H](NC(C)=O)C(C)(C)SSC(C)(C)[C@@H](C(=O)N[C@@H](Cc2ccc(OCCN)cc2)C(=O)N[C@@H](Cc2ccc3ccccc3c2)C(=O)N[C@@](C)(CCCCN)C(=O)N[C@@H](CCCCNC(=O)CC(C)C)C(=O)N[C@@H](CC(N)=O)C(=O)N[C@H](CC(C)C)C(N)=O)NC1=O [compound 356],0.193 nM,4.01 nM
CC(=O)NCCCC[C@H](NC(=O)[C@](C)(CC(C)C)NC(=O)[C@H](Cc1ccc2ccccc2c1)NC(=O)[C@H](Cc1ccc(OCCN)cc1)NC(=O)[C@H]1NC(=O)[C@](C)(CCCCN)NC(=O)[C@H](Cc2c[nH]c3c(C)cccc23)NC(=O)[C@H]([C@@H](C)O)NC(=O)[C@H](CC(N)=O)NC(=O)[C@@H](NC(C)=O)C(C)(C)SSC1(C)C)C(=O)N[C@@H](CC(N)=O)C(=O)NCCC(N)=O [compound 234],3.48 nM,7.7 nM
CC(=O)NCCCC[C@H](NC(=O)[C@](C)(CC(C)C)NC(=O)[C@H](Cc1ccc2ccccc2c1)NC(=O)[C@H](Cc1ccc(OCCN)cc1)NC(=O)[C@H]1NC(=O)[C@H](CCC(N)=O)NC(=O)[C@H](Cc2c[nH]c3c(C)cccc23)NC(=O)[C@H]([C@@H](C)O)NC(=O)[C@H](CC(N)=O)NC(=O)[C@@H](NC(C)=O)C(C)(C)SSC1(C)C)C(=O)N[C@@](C)(CC(C)C)C(=O)NCCC(N)=O [compound 225],56.7 nM,114 nM
CC(=O)NCCCC[C@H](NC(=O)[C@](C)(CCCCN)NC(=O)[C@H](Cc1ccc2ccccc2c1)NC(=O)[C@H](Cc1ccc(OCCN)cc1)NC(=O)[C@H]1NC(=O)[C@H](CCC(N)=O)NC(=O)[C@H](Cc2c[nH]c3c(C)cccc23)NC(=O)[C@H]([C@@H](C)O)NC(=O)[C@H](CCCNC(N)=O)NC(=O)[C@@H](NC(C)=O)C(C)(C)SSC1(C)C)C(=O)N[C@@H](CC(N)=O)C(=O)NCCC(N)=O [compound 238] (Ac-[Pen][Cit]T[Trp(7-Me)]Q[Pen][AEF][2Nal][αMeK]K(Ac)N[βAla]-NH2; disulfide 1-6),1.06 nM,2.99 nM
CC(=O)NCCCC[C@@H]1NC(=O)[C@H](Cc2c[nH]c3c(C)cccc23)NC(=O)[C@H]([C@@H](C)O)NC(=O)[C@H](CO)NC(=O)[C@@H](NC(C)=O)C(C)(C)SSC(C)(C)[C@@H](C(=O)N[C@@H](Cc2ccc(OCCN)cc2)C(=O)N[C@@H](Cc2ccc3ccccc3c2)C(=O)N[C@@](C)(CCCCN)C(=O)N[C@@H](CCCCNC(C)=O)C(=O)N[C@@H](CC(N)=O)C(=O)N[C@H](CC(C)C)C(N)=O)NC1=O [compound 334] (Ac-[Pen]ST[Trp(7-Me)]K(Ac)[Pen][AEF][2Nal][αMeK]K(Ac)N[dL]-NH2; disulfide 1-6),0.55 nM,4.52 nM
CC(=O)NCCCC[C@H](NC(=O)[C@](C)(CC(C)C)NC(=O)[C@H](Cc1ccc2ccccc2c1)NC(=O)[C@H](Cc1ccc(OCCN)cc1)NC(=O)[C@H]1NC(=O)[C@H](CCC(N)=O)NC(=O)[C@H](Cc2c[nH]c3c(C)cccc23)NC(=O)[C@H]([C@@H](C)O)NC(=O)[C@H](CC(N)=O)NC(=O)[C@@H](NC(C)=O)C(C)(C)SSC1(C)C)C(=O)N[C@H](CC(C)C)C(=O)NCCC(N)=O [compound 210],66.1 nM,> 500 nM
CCc1cccc2c(C[C@@H]3NC(=O)[C@H]([C@@H](C)O)NC(=O)[C@H](CC(N)=O)NC(=O)[C@@H](NC(C)=O)C(C)(C)SSC(C)(C)[C@@H](C(=O)N[C@@H](Cc4ccc(OCCN)cc4)C(=O)N[C@@H](Cc4ccc5ccccc5c4)C(=O)N[C@@](C)(CCCCN)C(=O)N[C@@H](CCCCNC(C)=O)C(=O)N[C@@H](CC(N)=O)C(=O)N[C@H](CC(C)C)C(N)=O)NC(=O)[C@H](CCCCNC(C)=O)NC3=O)c[nH]c12 [compound 284] (Ac-[Pen]NT[X1]K(Ac)[Pen][AEF][2Nal][αMeK]K(Ac)N[dL]-NH2; disulfide 1-6),0.34 nM,3.16 nM
CC(=O)NCCCC[C@@H]1NC(=O)[C@@H](NC(C)=O)C(C)(C)SSC(C)(C)[C@@H](C(=O)N[C@@H](Cc2ccc(OCCN)cc2)C(=O)N[C@@H](Cc2ccc3ccccc3c2)C(=O)N[C@@](C)(CCCCN)C(=O)N[C@@H](CCCCNC(C)=O)C(=O)N[C@@H](CC(N)=O)C(=O)NCCC(N)=O)NC(=O)[C@H](CCC(N)=O)NC(=O)[C@H](Cc2c[nH]c3c(C)cccc23)NC(=O)[C@H]([C@@H](C)O)NC1=O [compound 239],1.66 nM,4.1 nM
CCc1ccc2c(C[C@@H]3NC(=O)[C@H]([C@@H](C)O)NC(=O)[C@H](CC(N)=O)NC(=O)[C@@H](NC(C)=O)C(C)(C)SSC(C)(C)[C@@H](C(=O)N[C@@H](Cc4ccc(OCCN)cc4)C(=O)N[C@@H](Cc4ccc5ccccc5c4)C(=O)N[C@@](C)(CCCCN)C(=O)N[C@@H](CCCCNC(C)=O)C(=O)N[C@@H](CC(N)=O)C(=O)N[C@H](CCCCN)C(N)=O)NC(=O)[C@H](CCCCNC(C)=O)NC3=O)c[nH]c2c1 [compound 349] (Ac-[Pen]NT[X3]K(Ac)[Pen][AEF][2Nal][αMeK]K(Ac)N[dK]-NH2; disulfide 1-6),12.7 nM,45.5 nM
CC(=O)NCCCC[C@H](NC(=O)[C@](C)(CC(C)C)NC(=O)[C@H](Cc1ccc2ccccc2c1)NC(=O)[C@H](Cc1ccc(OCCN)cc1)NC(=O)[C@H]1NC(=O)[C@H](CCC(N)=O)NC(=O)[C@H](Cc2c[nH]c3c(C)cccc23)NC(=O)[C@H]([C@@H](C)O)NC(=O)[C@H](CC(N)=O)NC(=O)[C@@H](NC(C)=O)C(C)(C)SSC1(C)C)C(=O)N[C@H](C(=O)NCCC(N)=O)[C@@H](C)O [compound 217],1.61 nM,13.3 nM
CC(=O)NCCCC[C@@H]1NC(=O)[C@H](Cc2c[nH]c3c(C)cccc23)NC(=O)[C@H]([C@@H](C)O)NC(=O)[C@H](CC(N)=O)NC(=O)[C@@H](NC(C)=O)C(C)(C)SSC(C)(C)[C@@H](C(=O)N[C@@H](Cc2ccc(OCCN)cc2)C(=O)N[C@@H](Cc2ccc3ccccc3c2)C(=O)N[C@@](C)(CCCCN)C(=O)N[C@@H](CCCCNC(=O)[C@H](C)N)C(=O)N[C@@H](CC(N)=O)C(=O)N[C@H](CC(C)C)C(N)=O)NC1=O [compound 355],0.456 nM,5.34 nM
